Out of some 310,000 compounds screened, about 14,000 (4.5%) showed an effect of 50% or more. The effect is printed as a negative number. This is one part of the list.

Data on 58 compounds can be found in paper PMC4336329 (PLoS ONE, 2015).
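Also: peak tail current of the secondary pulse compared with the same well before compound.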

Chain of human ether-à-go-go-related gene (hERG) potassium channel (Q12809 whole entry, looked up): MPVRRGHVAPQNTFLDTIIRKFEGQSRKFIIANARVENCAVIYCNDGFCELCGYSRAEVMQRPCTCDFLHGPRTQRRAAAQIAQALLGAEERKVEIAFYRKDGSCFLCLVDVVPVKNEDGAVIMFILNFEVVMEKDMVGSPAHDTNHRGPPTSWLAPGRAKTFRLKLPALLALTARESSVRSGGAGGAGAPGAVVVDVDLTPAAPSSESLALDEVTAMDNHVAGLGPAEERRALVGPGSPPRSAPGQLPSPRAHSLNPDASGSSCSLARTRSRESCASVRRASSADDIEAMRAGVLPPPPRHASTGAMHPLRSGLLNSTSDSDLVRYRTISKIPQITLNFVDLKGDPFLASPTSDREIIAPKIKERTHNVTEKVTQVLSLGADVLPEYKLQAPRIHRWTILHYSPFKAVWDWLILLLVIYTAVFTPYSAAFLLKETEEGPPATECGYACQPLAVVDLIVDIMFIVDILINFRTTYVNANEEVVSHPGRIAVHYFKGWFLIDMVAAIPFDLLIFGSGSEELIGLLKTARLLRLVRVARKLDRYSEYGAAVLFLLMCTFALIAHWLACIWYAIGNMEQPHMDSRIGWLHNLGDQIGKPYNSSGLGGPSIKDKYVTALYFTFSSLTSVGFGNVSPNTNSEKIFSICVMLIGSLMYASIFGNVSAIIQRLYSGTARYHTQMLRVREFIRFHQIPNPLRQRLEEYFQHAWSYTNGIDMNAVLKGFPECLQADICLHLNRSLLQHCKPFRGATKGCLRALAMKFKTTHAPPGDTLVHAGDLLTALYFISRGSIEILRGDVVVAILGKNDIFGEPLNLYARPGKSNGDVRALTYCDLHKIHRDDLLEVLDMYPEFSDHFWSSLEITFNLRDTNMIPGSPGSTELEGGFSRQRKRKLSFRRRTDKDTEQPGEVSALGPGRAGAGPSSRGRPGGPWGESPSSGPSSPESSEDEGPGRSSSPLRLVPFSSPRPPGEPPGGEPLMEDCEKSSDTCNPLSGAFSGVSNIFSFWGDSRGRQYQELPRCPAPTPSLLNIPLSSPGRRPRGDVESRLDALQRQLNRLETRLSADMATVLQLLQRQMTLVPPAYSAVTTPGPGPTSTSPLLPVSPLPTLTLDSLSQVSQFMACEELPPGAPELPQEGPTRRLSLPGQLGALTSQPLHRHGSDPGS

The assay concerns the target human ether-à-go-go-related gene (hERG) potassium channel (human, UniProt Q12809). The experiment in a line: primary screen, population patch clamp on CHO cells stably expressing hERG.
For the compound `CC(=C/c1ccccc1)/C=N/NC(=O)CSc1nc(C)cc(C)n1`, the “hERG current change (%, negative = inhibition) at 10uM” value was 12.8%.
In the case of `O=P(Nc1cccnc1)(Oc1ccccc1)Oc1ccccc1`, the “hERG current change (%, negative = inhibition) at 10uM” value was 13.8%.
For the compound `COc1ccc(/C=C2\CCCC3C2=NN(C(=O)c2ccco2)C3c2ccc(OC)c(OC)c2)cc1OC` (stereo not shown), the “hERG current change (%, negative = inhibition) at 10uM” value is on record as -22.5%.
With `N=c1c(C(=O)NC2CCCCC2)cc2c(=O)n3ccccc3nc2n1Cc1ccco1`, the “hERG current change (%, negative = inhibition) at 10uM” value is on record as -77%.
`O=C(Nc1ccc(NC(=O)C2CC2)cn1)c1ccccc1`: the “hERG current change (%, negative = inhibition) at 10uM” value is given as 2.98%.
Turning to `CC[C@@H](C)[C@H](CN[C@H](CNC)C(C)C)NC[C@@H](C)c1ccc(CC(C)C)cc1`, the “hERG current change (%, negative = inhibition) at 10uM” value is -10.4%.
Consider `CCC1(C)OC(=O)N(CCCn2ccnc2C)C1(C)O` (stereo not shown), for which the “hERG current change (%, negative = inhibition) at 10uM” value is -8.95%.
For `COc1cc2c(cc1OC)-c1cc(NC3CC3)nc(=O)n1CC2`, the “hERG current change (%, negative = inhibition) at 10uM” value is reported as -24.8%.
The value for `c1ccc(-c2ccnc3nc(N4CCN(c5ccccc5)CC4)nn23)cc1` was -41.5%.
Turning to `CC1CN(C(=O)CCC(=O)NCCCc2ccccc2)c2ccccc2O1` (stereo not shown), the “hERG current change (%, negative = inhibition) at 10uM” value is given as -33.8%.
The value for `Nc1nccc(/C=C/c2c(Cl)cccc2Cl)n1` was 10%; that for `Cc1cccc(N2CCN(Cc3cn(C)nc3-c3ccccc3F)CC2)n1` was -34.4%.
Turning to `CC(=O)NCCC(=O)Nc1cc(S(=O)(=O)N2CCOCC2)ccc1N1CCOCC1`, the “hERG current change (%, negative = inhibition) at 10uM” value is listed as 30.9%.
To `N/C(=N\OC(=O)c1ccc(Cl)cc1Cl)c1ccccc1` belongs 3.8%.
As for `CSc1ncc(CN2CCCC(C(=O)c3ccccc3SC)C2)cn1` (stereo not shown), the “hERG current change (%, negative = inhibition) at 10uM” value is recorded as -65.1%.
The value for `O=C(COC(=O)c1cccnc1Nc1ccccc1F)NCc1ccc2c(c1)OCO2` was -12%; that for `CC12CCC(=O)N1C(C(=O)N1CCN(c3cccc(Cl)c3)CC1)CS2` (stereo not shown) was -19.4%.
To `Cc1nc(NC(=O)COc2ccccc2)sc1C(=O)Nc1ccccc1` belongs -1.5%.
`O=C(Nc1nnc(SCc2cccnc2)s1)C1CC(=O)N(c2ccccc2)C1` (stereo not shown): the “hERG current change (%, negative = inhibition) at 10uM” value is 8.12%.
In the case of `CCOc1c2ccc(C(=O)NCc3ccc(OC(F)(F)F)cc3)cc2nn1C`, the “hERG current change (%, negative = inhibition) at 10uM” value is listed as -23.1%.
`CCOC(=O)C(C(=O)OCC)c1c([N+](=O)[O-])c(=O)n2c3c(cccc13)CCC2`: the “hERG current change (%, negative = inhibition) at 10uM” value is given as -4.13%.
Turning to `O=S(=O)(Nc1ccc(Cl)c(Cl)c1)N1CCOCC1`, the “hERG current change (%, negative = inhibition) at 10uM” value was found to be 6.44%.
On to `O=C(NC1CCN(C(=O)c2ccccc2Br)CC1)c1ccccc1`, for which the “hERG current change (%, negative = inhibition) at 10uM” value was -14.5%.
In the case of `N#CCc1ccc(NC(=O)CSc2nnc(C3CC3)n2C2CC2)cc1`, the “hERG current change (%, negative = inhibition) at 10uM” value worked out at 9.18%.
Regarding `O=C(N/N=C/c1c(F)cccc1Cl)c1ccc(Cn2cc(Br)cn2)o1`, the “hERG current change (%, negative = inhibition) at 10uM” value is on record as -15.6%.
As for `Cc1c(C)c2ccc(O)c(CN3CCCC3)c2oc1=O`, the “hERG current change (%, negative = inhibition) at 10uM” value amounted to 20.8%.
Consider `Cc1cc(C)nc(SCc2cc(=O)c(OC(=O)c3ccco3)co2)n1`, for which the “hERG current change (%, negative = inhibition) at 10uM” value stood at 9.82%.
On to `Cc1ccc(NC(=S)NCC2CCN(C(C)c3ccccc3)C2)cc1` (stereo not shown), for which the “hERG current change (%, negative = inhibition) at 10uM” value was -57.5%.
As to `COCO/C=C(\NC(C)=O)c1ccccc1`, the “hERG current change (%, negative = inhibition) at 10uM” value turned out to be 15%.
In the case of `Cc1ccc(-n2cccn2)c(CN2CCCC(C(=O)c3sccc3C)C2)c1` (stereo not shown), the “hERG current change (%, negative = inhibition) at 10uM” value is -85.4%.
To `CCn1c(SCC(=O)Nc2ccc(S(=O)(=O)Nc3onc(C)c3C)cc2)nnc1-c1ccccc1` belongs -10.2%.
On to `COC(=O)COc1ccc(S(=O)(=O)N2CCCCC2)cc1[N+](=O)[O-]`, for which the “hERG current change (%, negative = inhibition) at 10uM” value came out at 11.6%.
As to `O=C(CSc1nnc2ccccn12)NNC(=O)c1ccc(Br)cc1`, the “hERG current change (%, negative = inhibition) at 10uM” value is 17.9%.
With `Cc1ccc(Oc2ccc(N)cc2)cc1.Cl`, the “hERG current change (%, negative = inhibition) at 10uM” value is recorded as -6.53%.
On to `O=C(NC(=S)Nc1ccc2oc(=O)ccc2c1)c1cccc(F)c1`, for which the “hERG current change (%, negative = inhibition) at 10uM” value is 15.3%.
To `CC(c1nc2ccccc2c(=O)[nH]1)N1CCN(C)CC1` (stereo not shown) belongs -5.2%; to `COc1ccc(C)cc1N(CC(=O)Nc1cccnc1)S(=O)(=O)c1ccc(C)cc1`, 0.795%.
The value for `CCCCCCCC(=O)OCC(O)CO` (stereo not shown) was -4.64%; that for `O=C1CC(NS(=O)(=O)c2ccccc2)CN1c1ccc2c(c1)OCCO2` (stereo not shown) was -1.28%.
With `COc1ccc(C)cc1NC(=O)CCCN1C(=O)NC(C)(C)C1=O`, the “hERG current change (%, negative = inhibition) at 10uM” value is on record as 6.12%.
As for `CCN(CC)CCNC(=O)c1ccc(NC(=O)c2ccc(S(=O)(=O)N3CCCCCC3)cc2)cc1`, the “hERG current change (%, negative = inhibition) at 10uM” value was found to be 10.9%.
As for `CSc1ccc(/C=N/NC(=O)c2cccc(Cl)c2)cc1`, the “hERG current change (%, negative = inhibition) at 10uM” value was -1.49%.
Consider `O=C(N/N=C(\Cc1ncc[nH]1)c1ccccc1)c1ccncc1`, for which the “hERG current change (%, negative = inhibition) at 10uM” value was determined as 9.02%.
With `CC(CN1CCCCC1)NC(=O)c1cccs1` (stereo not shown), the “hERG current change (%, negative = inhibition) at 10uM” value is -1.8%.
As to `CC(C)CCNC(=O)C(=O)Nc1ccc2c(c1)N(S(=O)(=O)c1cccs1)CCC2`, the “hERG current change (%, negative = inhibition) at 10uM” value stood at 9.19%.
To `Cn1c(NCCO)nc2c1c(=O)n(Cc1ccc(F)cc1)c(=O)n2C` belongs 7.98%; to `CC(=O)Nc1ccc(S(=O)(=O)NCC(=O)OCc2ccccc2)cc1`, -3.27%.
For `CCN(CC)C(=S)SCC(=O)c1c(C)[nH]c2ccccc12`, the “hERG current change (%, negative = inhibition) at 10uM” value was 4.2%.
The value for `Cl.O=C(c1ccc(Cl)c(S(=O)(=O)N2CCCC2)c1)N1CCN(c2ccc(F)cc2)CC1` was -58.5%; that for `CSc1ccccc1C(=O)NCc1ccc(C)cc1` was -3.63%.
On to `COc1cc(OC)c(C(=O)OCN2C(=O)c3ccccc3C2=O)cc1OC`, for which the “hERG current change (%, negative = inhibition) at 10uM” value is given as -19.8%.
On to `c1ccc(COc2ccc(CNn3cnnc3)cc2)cc1`, for which the “hERG current change (%, negative = inhibition) at 10uM” value came out at 9.48%.
On to `CCc1c(C(=O)O)[nH]c2ccc(Br)cc12`, for which the “hERG current change (%, negative = inhibition) at 10uM” value was 7.89%.
`O=c1ccc(/C=C/c2ccccc2)nn1Cc1ccccc1Cl`: the “hERG current change (%, negative = inhibition) at 10uM” value was determined as 0.487%.
As to `COc1ccc(NCN2C(=O)C3C4C=CC(C4)C3C2=O)cc1` (stereo not shown), the “hERG current change (%, negative = inhibition) at 10uM” value worked out at 16.2%.
With `O=C1c2cccc3cccc(c23)C(=O)N1CCCc1n[nH]c(=S)n1-c1ccccc1`, the “hERG current change (%, negative = inhibition) at 10uM” value is 16.6%.
Regarding `CC(NC(=O)CCC(=O)c1ccc(F)cc1)C1CC2CCC1C2` (stereo not shown), the “hERG current change (%, negative = inhibition) at 10uM” value was -9.78%.
On to `O=C(COc1ccc2c(c1)CCC2)N1CCc2ccccc21`, for which the “hERG current change (%, negative = inhibition) at 10uM” value turned out to be 15.4%.
